Consider 56 molecules from ChEMBL document CHEMBL4888484, “Replenishing the malaria drug discovery pipeline: Screening and hit evaluation of the MMV Hit Generation Library 1 (HGL1) against asexual blood stage Plasmodium falciparum ,using a nano luciferase reporter read-out” (2022).

Molecules are shown by their SMILES. Among all 150,000 compounds or so, about 540 (0.36%) showed an effect of 50% or more. The list shows a part of the results.

The test system of this assay is Plasmodium falciparum. Nature of the assay: Primary screen in NF54 nanoGlo assay, in single point, at 2uM, 72h; a lower Z score goes with more inhibition. In kind it is functional, Erythrocyte. The following applies: timepoint 72 hour.
In the case of `FC(F)(F)c1cc(N2CCC(COc3ccccn3)CC2)nc(-c2ccncc2)n1`, the % Inhibition (as a rule, the relative decrease from the control value, in per cent) was determined as 2% and the Z score was -0.41.
On to `CN1CCN(C(=O)c2ccc(Cn3ccnn3)o2)Cc2cccnc21`, for which the “% Inhibition” value is listed as 6% and the Z score is -0.96.
For `Cc1nnc(NC(=O)c2cn(Cc3cccc(F)c3)nc2OCc2cccc(F)c2)s1`, the “% Inhibition” value is recorded as -24% and the Z score is given as 2.72.
In the case of `O=C(NCCC1Cc2ccccc2C1)N[C@H]1CC[C@H](O)CC1`, the “% Inhibition” value is recorded as 7% and the Z score is -0.78.
Turning to `O=C1C[C@@H](C(=O)Nc2cccc(F)c2)n2nc(-c3ccccc3)cc2N1`, the “% Inhibition” value is on record as -3% and the Z score was 0.57.
On the same counts, the results for `COc1ccccc1CCNC(=O)c1ncoc1-c1ccc(C)s1` are -3% and 0.29.
On to `CCn1c(C)nnc1CNC(C)(C)c1ncc(C)s1`, for which the “% Inhibition” value is given as -11% and the Z score was determined as 1.26.
`Cc1cccc(NC(=O)[C@@H](C#N)C(=O)CC(C)C)c1`: the “% Inhibition” value was -12% and the Z score is 1.12.
For the molecule `O=C(NCc1nc(-c2ncccn2)no1)[C@H]1CCCN(C2CCCC2)C1`, the “% Inhibition” value is listed as -1% and the Z score came out at 0.16.
Regarding `Cc1cc(C(=O)Cn2cnc(C#N)n2)c(C)n1-c1cccc(S(=O)(=O)N2CCOCC2)c1`, the “% Inhibition” value is recorded as -17% and the Z score turned out to be 2.46.
In the case of `O=C(Nc1ccc2c(c1)OCO2)c1cc(Cl)c2c(c1)OCCCO2`, the “% Inhibition” value is listed as -13% and the Z score turned out to be 1.73.
Regarding `Cc1nc(Oc2cccc3c2OC(C)(C)C3)sc1C(=O)O`, the “% Inhibition” value is given as -7% and the Z score turned out to be 0.99.
Consider `Cc1nnc(O)nc1Nc1cccc(Br)c1`, for which the “% Inhibition” value is -4% and the Z score is listed as 0.59.
For the molecule `N[C@H]1CCN(C(=O)c2ccccc2C(=O)c2ccc(F)cc2)C1`, the “% Inhibition” value was -2% and the Z score is reported as 0.23.
On the same counts, the results for `Cc1cc(N2CCN([C@H]3CCS(=O)(=O)C3)CC2)n2nc(C)cc2n1` are -8% and 1.03.
On the same counts, the results for `Cc1ccc(C(=O)NCc2ccnc(-n3ccnc3C)c2)s1` are -10% and 1.4.
Consider `Cc1c(CCNC(=O)N2CCC[C@H](O)C2)c2cccc3c2n1CCC3`, for which the “% Inhibition” value is given as -6% and the Z score is listed as 0.99.
Taken in the same sequence, the figures for `Cn1ncc(C2CCC2)c1CNc1ncnc2ccsc12` were -4% and 0.89.
Consider `CC[C@@H](C(=O)NC)n1ccc2cc(S(=O)(=O)N3CCCCC3)ccc21`, for which the “% Inhibition” value came out at 41% and the Z score is on record as -5.88.
On the same counts, the results for `C=C(C)CN(CC)C(=O)C(C)NCC1CN(C)CCO1` (configuration not stated) are -4% and 0.49.
On the same counts, the results for `O=C(NCc1cc2n(n1)CCNC2)c1cc(Cl)c[nH]1` are -13% and 1.52.
On to `Cn1nncc1NC(=O)c1nnc(C(C)(C)C)s1`, for which the “% Inhibition” value was 6% and the Z score is on record as -0.76.
As to `Cc1c(Cl)cccc1S(=O)(=O)N1CCN(C)Cc2ccccc21`, the “% Inhibition” value is recorded as -3% and the Z score is given as 0.48.
Taken in the same sequence, the figures for `Cc1nc2cc(Cc3ncnn3CC(F)(F)F)ccc2[nH]1` were -12% and 1.59.
In the case of `CC(=O)N1CCC(C(=O)Nc2ccc(Nc3ccccc3)cc2)CC1`, the “% Inhibition” value is recorded as -6% and the Z score came out at 0.91.
Taken in the same sequence, the figures for `CC(C)Cn1ccnc1NC(=O)c1ccc(CCN(C)C)cc1` were -7% and 0.85.
With `Cc1ccc(CS(=O)(=O)N2CCC3CCN(C)CC32)c(F)c1` (configuration not stated), the “% Inhibition” value is recorded as -7% and the Z score stood at 1.13.
Taken in the same sequence, the figures for `COc1ccc(OCc2nc(C(=O)N[C@H]3CCNC3=O)co2)cc1` were 9% and -1.53.
In the case of `CC(C)Cn1c(=O)c(-c2ccc(C(=O)N3CCN(c4ccccc4)CC3)cc2)nc2ccccc21`, the “% Inhibition” value worked out at 11% and the Z score is on record as -1.11.
Regarding `CC1CC1C(=O)N1CCCC(CN2CCCCCC2)C1` (configuration not stated), the “% Inhibition” value is reported as -10% and the Z score came to 1.25.
Taken in the same sequence, the figures for `CCn1ncc(-c2ccnc3cc(C(=O)Nc4cccc(Cl)c4C)nn23)c1C` were 27% and -3.67.
Taken in the same sequence, the figures for `CC(C(=O)O)N1CCOC(c2ccsc2)C1` (configuration not stated) were -10% and 1.1.
On the same counts, the results for `Cc1csc(NC(=O)[C@H]2CC2(F)F)n1` are -1% and 0.18.
`O=C(C[C@H]1COc2ccc(Cl)cc2N1Cc1ccc(F)cc1)NC1CCCC1`: the “% Inhibition” value was -15% and the Z score was determined as 2.17.
On the same counts, the results for `O=C(NC[C@H]1CCC[C@@H]1O)c1cc(F)c[nH]1` are 7% and -0.56.
Regarding `Cc1c(C#N)c(NC(=O)CN2CCCCC2)n(Cc2ccco2)c1C`, the “% Inhibition” value is on record as -3% and the Z score was 0.3.
On to `CN(C)Cc1nc(C(=O)NCc2cccnc2N2CCN(C)CC2)cs1`, for which the “% Inhibition” value was -8% and the Z score is given as 1.56.
Turning to `Cc1ccc(-c2ocnc2C(=O)Nc2ccc(NC(=O)c3ccccc3)nc2)cc1`, the “% Inhibition” value is -8% and the Z score was 0.85.
On the same counts, the results for `OCCOc1ccccc1CN[C@H]1CCc2cc(Cl)ccc21` are -14% and 1.2.
`O=S(=O)(CC[C@H]1CCCO1)N1CCc2c(F)cc(F)cc21`: the “% Inhibition” value was 0% and the Z score was 0.01.
Consider `CC(C)O[C@H]1C[C@@H](NC(=O)c2ccc(C(F)(F)F)c(=O)[nH]2)C1`, for which the “% Inhibition” value is given as 13% and the Z score is recorded as -1.51.
For the molecule `CC[C@]1(CO)CCCN(c2nnc(C(C)C)s2)C1`, the “% Inhibition” value is recorded as 5% and the Z score is on record as -0.5.
On the same counts, the results for `COc1ccccc1C(=O)NC(C(=O)NCC1CN(C)CCO1)C(C)C` (configuration not stated) are 4% and -0.64.
Taken in the same sequence, the figures for `COc1cccc(-n2c(C)nn(Cc3ccc(Cl)cc3)c2=O)c1` were 0% and 0.04.
For `Cn1ccnc(NCc2ccccc2CN2CCCCCC2)c1=O`, the “% Inhibition” value is listed as -13% and the Z score is listed as 2.22.
Taken in the same sequence, the figures for `O=C(Nc1cccc(C2CC2)n1)N1CC(S(=O)(=O)N2CCNCC2)C1` were 7% and -1.33.
Taken in the same sequence, the figures for `NC1(CNC(=O)c2ccccc2Cl)CCCCCC1` were 3% and -0.57.
On the same counts, the results for `NC(=O)CCCC(=O)NCC(=O)Nc1ccccc1` are 8% and -0.82.
Consider `CN(C1CCCC1)C(C)(C)C(=O)NCc1csc(=O)[nH]1`, for which the “% Inhibition” value was -6% and the Z score is 0.74.
On the same counts, the results for `Cn1ncc2c(=O)[nH]c(CN3CCCCCCC3)nc21` are 2% and -0.21.
With `CN(Cc1ccccc1)Cn1c(=S)sc2ccc(Cl)cc21`, the “% Inhibition” value is reported as -10% and the Z score was determined as 1.95.
In the case of `CCC#CCN1CCC[C@H](CNC(=O)c2oc(C)nc2C)C1`, the “% Inhibition” value was -10% and the Z score was 1.42.
Turning to `CCO[C@H]1C[C@H](NC(=O)Nc2ccncc2Br)C1`, the “% Inhibition” value was -9% and the Z score was determined as 1.38.
Taken in the same sequence, the figures for `CCN(CC)C(=O)N[C@@H](C)COc1ccc(F)cc1F` were -1% and 0.12.
On the same counts, the results for `COc1ccc(N2CCN(C(=O)Cn3c(C)cc(C)c3-c3nc(C(C)C)no3)CC2)cc1` are -10% and 1.32.
Taken in the same sequence, the figures for `CN(C)C(=O)CNCc1cnc(-c2ccco2)nc1` were -26% and 2.29.
